B1: PhoQ; a variant is named by its letters at X, in order, P23837 (parent)
chain: MKKLLRLFFPLSLRVRFLLATAAVVLVLSLAYGMVALIGYSVSFDKTTFRLLRGESNLFYTLAKWENNKLHVELPENIDKQSPTMTLIYDENGQLLWAQRDVPWLMKMIQPDWLKSNGFHEIEADVNDTSLLLSGDHSIQQQLQEVREDDDDAEMTHSVAVNVYPATSRMPKLTIVVVDTIPVELKSSYMVWSWFIYVLSANLLLVIPLLWVAAWWSLRPIEALAKEVRELEEHNRELLNPATTRELTSLVRNLNRLLKSERERYDKYRTTLTDLTHSLKTPLXXLQXXLRSLRSEKMSVSDAEPVMLEQISRISQQIGYYLHRASMRGGTLLSRELHPVAPLLDNLTSALNKVYQRKGVNISLDISPEISFVGEQNDFVEVMGNVLDNACKYCLEFVEISARQTDEHLYIVVEDDGPGIPLSKREVIFDRGQRVDTLRPGQGVGLAVAREITEQYEGKIVAGESMLGGARMEVIFGRQHSAPKDE

Some of the results follow.

The variants in the assay derive from B1. As to the kind of experiment: enrichment ratio after two sorts for PhoP signalling (ratio (wild type AVST 3.29)); higher = more functional. The note with it: with PhoP (E. coli).
Take MSTS: the enrichment ratio worked out at 0.73. Take PVHY: the enrichment ratio was ≤ 0.25. Take ESDN: the enrichment ratio is ≤ 0.25. Regarding GEFG, the enrichment ratio is ≤ 0.25. For QYDY, the enrichment ratio is ≤ 0.25. For the variant EQES, the enrichment ratio is ≤ 0.25.

Consider FPVK, for which the enrichment ratio was ≤ 0.25. Regarding WKAH, the enrichment ratio is ≤ 0.25. Take IDAC: the enrichment ratio is ≤ 0.25. Take APTP: the enrichment ratio was ≤ 0.25.

In the case of IYSQ, the enrichment ratio is ≤ 0.25. As to DDMS, the enrichment ratio is ≤ 0.25. In the case of ALCE, the enrichment ratio was 16.1. As for NHHT, the enrichment ratio is ≤ 0.25. Consider MIGT, for which the enrichment ratio was ≤ 0.25. For the variant GLVH, the enrichment ratio was ≤ 0.25. As for TPNY, the enrichment ratio was ≤ 0.25. For the variant HFVG, the enrichment ratio was ≤ 0.25. Regarding APAY, the enrichment ratio is ≤ 0.25.

Regarding AWLM, the enrichment ratio was ≤ 0.25.

For the variant QCCN, the enrichment ratio was ≤ 0.25. On to VWMQ, for which the enrichment ratio is ≤ 0.25. For QCAF, the enrichment ratio was ≤ 0.25. With YQCG, the enrichment ratio is ≤ 0.25. For the variant TCHP, the enrichment ratio was ≤ 0.25.

Take VLCL: the enrichment ratio amounted to 0.464. The figure for YRNR is ≤ 0.25. On to WSHM, for which the enrichment ratio was ≤ 0.25. For the variant IVYN, the enrichment ratio was ≤ 0.25. Take AHNN: the enrichment ratio was ≤ 0.25. Turning to RHRD, the enrichment ratio is ≤ 0.25. As for QQNM, the enrichment ratio was 16.3. As for DPRR, the enrichment ratio was ≤ 0.25. In the case of HHCS, the enrichment ratio is ≤ 0.25. IWGQ: the enrichment ratio is ≤ 0.25. As for SCQV, the enrichment ratio is ≤ 0.25. Take TKAL: the enrichment ratio came out at 10.3. As for MVRG, the figure is ≤ 0.25; as for PVYQ, ≤ 0.25. With QDAT, the enrichment ratio was ≤ 0.25. The figure for PGCD is ≤ 0.25; for RHAC it is ≤ 0.25. Consider ENPY, for which the enrichment ratio was ≤ 0.25. With QDSM, the enrichment ratio was ≤ 0.25. MCNT: the enrichment ratio was ≤ 0.25.

With RSAY, the enrichment ratio was ≤ 0.25.

With DFPY, the enrichment ratio was ≤ 0.25.

Consider LCHK, for which the enrichment ratio is ≤ 0.25. As for ADAS, the figure is ≤ 0.25; as for DQRY, ≤ 0.25; as for RNFD, ≤ 0.25. The figure for ICRI is ≤ 0.25; for YFDD it is ≤ 0.25. Consider SLVF, for which the enrichment ratio is ≤ 0.25. As to PGGA, the enrichment ratio is ≤ 0.25. As for TVIW, the figure is ≤ 0.25; as for SDYC, ≤ 0.25. The figure for PVSL is ≤ 0.25. On to DVIS, for which the enrichment ratio is ≤ 0.25. As for NDHM, the figure is ≤ 0.25; as for WFHS, ≤ 0.25; as for IKNP, ≤ 0.25. Consider AHKT, for which the enrichment ratio was ≤ 0.25.

PQHD: the enrichment ratio is ≤ 0.25. In the case of RNGN, the enrichment ratio is ≤ 0.25. As for NAAM, the enrichment ratio was ≤ 0.25.

Regarding NLQK, the enrichment ratio is ≤ 0.25. With YHCD, the enrichment ratio is ≤ 0.25. In the case of ISCG, the enrichment ratio is ≤ 0.25. Consider ENCA, for which the enrichment ratio was ≤ 0.25. The figure for YNAL is ≤ 0.25; for TIQP it is ≤ 0.25; for ASMT it is 12. For LLIS, the enrichment ratio was ≤ 0.25. For GRGL, the enrichment ratio was ≤ 0.25. As for QIPC, the enrichment ratio was ≤ 0.25.

Take TPCL: the enrichment ratio was ≤ 0.25. Take TWWP: the enrichment ratio was ≤ 0.25. For WWSM, the enrichment ratio was ≤ 0.25. The figure for CYIL is ≤ 0.25. As for REHM, the enrichment ratio is ≤ 0.25. The figure for VAAR is ≤ 0.25; for WHPQ it is ≤ 0.25. VLPA: the enrichment ratio is ≤ 0.25. Turning to HFIY, the enrichment ratio is ≤ 0.25. On to TQPT, for which the enrichment ratio is ≤ 0.25. As for IVLT, the figure is 0.33. INAP: the enrichment ratio is ≤ 0.25. The figure for DWRY is ≤ 0.25; for VQYR it is ≤ 0.25; for GCGP it is ≤ 0.25. With GKRL, the enrichment ratio was ≤ 0.25.

In the case of VRIV, the enrichment ratio was ≤ 0.25. For the variant ICKL, the enrichment ratio was ≤ 0.25. TADQ: the enrichment ratio is ≤ 0.25. Regarding PNQH, the enrichment ratio was ≤ 0.25. In the case of HFYR, the enrichment ratio is ≤ 0.25. As to PWQF, the enrichment ratio is ≤ 0.25. MAKL: the enrichment ratio was ≤ 0.25. Regarding FQMV, the enrichment ratio amounted to 0.463.

On to SAHY, for which the enrichment ratio was ≤ 0.25. For ETYA, the enrichment ratio was ≤ 0.25. As for GMKT, the enrichment ratio is ≤ 0.25. HFSN: the enrichment ratio was ≤ 0.25.

Take VTGI: the enrichment ratio is ≤ 0.25. As for TAVK, the enrichment ratio is ≤ 0.25. As for LRID, the figure is ≤ 0.25. Regarding IWSY, the enrichment ratio was ≤ 0.25. For FDTR, the enrichment ratio was ≤ 0.25. As to WNCS, the enrichment ratio was ≤ 0.25.

Consider HLYL, for which the enrichment ratio was ≤ 0.25.

With LKGN, the enrichment ratio is ≤ 0.25. Turning to PGKQ, the enrichment ratio was ≤ 0.25. In the case of QQNP, the enrichment ratio was ≤ 0.25. For GTGL, the enrichment ratio worked out at 1.73. In the case of HIMI, the enrichment ratio is ≤ 0.25. For the variant IWHT, the enrichment ratio is ≤ 0.25. On to MRIS, for which the enrichment ratio is ≤ 0.25. Consider KRGI, for which the enrichment ratio is ≤ 0.25. The figure for KLKT is ≤ 0.25; for IEWR it is ≤ 0.25; for PPCF it is ≤ 0.25.

Regarding ATMV, the enrichment ratio amounted to 9.43. For QENS, the enrichment ratio is ≤ 0.25. In the case of NFNH, the enrichment ratio was ≤ 0.25. Turning to AHPI, the enrichment ratio was ≤ 0.25.

Turning to INDV, the enrichment ratio is ≤ 0.25. The figure for NQCQ is ≤ 0.25; for MQRH it is ≤ 0.25. As for AEDY, the figure is ≤ 0.25; as for MYMI, 0.465; as for VFLI, ≤ 0.25. With GMGV, the enrichment ratio is ≤ 0.25. As to PGMT, the enrichment ratio was ≤ 0.25. In the case of RICT, the enrichment ratio was ≤ 0.25. As for VNLL, the enrichment ratio is 10.2. The figure for RGGS is ≤ 0.25; for MANW it is ≤ 0.25.

For the variant HYCL, the enrichment ratio is ≤ 0.25. As for NMES, the figure is ≤ 0.25.

As to LRTH, the enrichment ratio is ≤ 0.25. For SRDH, the enrichment ratio was ≤ 0.25. As for RVNE, the figure is ≤ 0.25; as for VMTE, ≤ 0.25. Consider KAAW, for which the enrichment ratio was ≤ 0.25. In the case of NERC, the enrichment ratio is ≤ 0.25. On to QQVN, for which the enrichment ratio was ≤ 0.25. The figure for SRED is ≤ 0.25; for KHDV it is ≤ 0.25; for WNYV it is ≤ 0.25.

With SGLY, the enrichment ratio is 8.86. As to DLDV, the enrichment ratio is ≤ 0.25.

In the case of HKEM, the enrichment ratio was ≤ 0.25.

The values are drawn from a collection of fitness landscapes (doi:10.1126/science.1257360).
